Data published in the GPR68 mutational scans of Howard et al. (2025).
Scores whose standard error is large were omitted. Two further conditions of the source, in which the scores hardly spread, are not listed. In variant names, del marks residues removed and ins residues inserted between the two positions. For some of these results: How much ogerin was present is not stated here.

B1: GPR68, Q15743 (parent)
chain: MGNITADNSSMSCTIDHTIHQTLAPVVYVTVLVVGFPANCLSLYFGYLQIKARNELGVYLCNLTVADLFYICSLPFWLQYVLQHDNWSHGDLSCQVCGILLYENIYISVGFLCCISVDRYLAVAHPFRFHQFRTLKAAVGVSVVIWAKELLTSIYFLMHEEVIEDENQHRVCFEHYPIQAWQRAINYYRFLVGFLFPICLLLASYQGILRAVRRSHGTQKSRKDQIQRLVLSTVVIFLACFLPYHVLLLVRSVWEASCDFAKGVFNAYHFSLLLTSFNCVADPVLYCFVSETTHRDLARLRGACLAFLTCSRTGRAREAYPLGAPEASGKSGAQGEEPELLTKLHPAFQTPNSPGSGGFPTGRLA

Experiments:
[1] = variants of: B1; experiment: cAMP reporter score (Enrich2 score, wild type = 0); higher = more signal; HEK293T, FACS bins
[2] = variants of: B1; experiment: surface expression score (Enrich2 score, wild type = 0); higher = more signal; HEK293T, FACS bins

V123W
cAMP reporter score ([1]; pH 5.5): -1.67
cAMP reporter score ([1]; pH 6): -1.53
cAMP reporter score ([1]; pH 6.5, modulator: ogerin): -1.88
surface expression score [2]: 0.012

V123Y
cAMP reporter score ([1]; pH 5.5): -1.21
cAMP reporter score ([1]; pH 6): -0.434
cAMP reporter score ([1]; pH 6, modulator: ogerin): -1.08
cAMP reporter score ([1]; pH 6.5, modulator: ogerin): -0.854
surface expression score [2]: -1.19

V123_A124insGS
cAMP reporter score ([1]; pH 5.5): -0.413
cAMP reporter score ([1]; pH 6, modulator: ogerin): -2.37

V123_H125del
cAMP reporter score ([1]; pH 5.5): -1.88
cAMP reporter score ([1]; pH 6): -1.51
cAMP reporter score ([1]; pH 6.5, modulator: ogerin): -2.16
surface expression score [2]: -3.31

A124C
cAMP reporter score ([1]; pH 5.5): 1.04
cAMP reporter score ([1]; pH 6): 3.52
cAMP reporter score ([1]; pH 6, modulator: ogerin): 1.23
cAMP reporter score ([1]; pH 6.5, modulator: ogerin): 3.19
surface expression score [2]: 1.09

A124D
cAMP reporter score ([1]; pH 5.5): -1.43
cAMP reporter score ([1]; pH 6, modulator: ogerin): -0.678
cAMP reporter score ([1]; pH 6.5, modulator: ogerin): -0.444
surface expression score [2]: -0.403

A124E
cAMP reporter score ([1]; pH 5.5): -1.12
cAMP reporter score ([1]; pH 6): -1.13
cAMP reporter score ([1]; pH 6, modulator: ogerin): -1.33
cAMP reporter score ([1]; pH 6.5, modulator: ogerin): -0.771
surface expression score [2]: -2.1

A124F
cAMP reporter score ([1]; pH 5.5): -1.06
cAMP reporter score ([1]; pH 6): -0.002
cAMP reporter score ([1]; pH 6, modulator: ogerin): -1.23
cAMP reporter score ([1]; pH 6.5, modulator: ogerin): -1.26
surface expression score [2]: -1.54

A124G
cAMP reporter score ([1]; pH 5.5): -0.608
cAMP reporter score ([1]; pH 6, modulator: ogerin): -0.654
cAMP reporter score ([1]; pH 6.5, modulator: ogerin): -1.14
surface expression score [2]: -1.29

A124H
cAMP reporter score ([1]; pH 5.5): -0.893
cAMP reporter score ([1]; pH 6): -0.214
cAMP reporter score ([1]; pH 6, modulator: ogerin): -1.3
surface expression score [2]: -0.445

A124K
cAMP reporter score ([1]; pH 5.5): -1.24
cAMP reporter score ([1]; pH 6): -1.1
cAMP reporter score ([1]; pH 6, modulator: ogerin): -0.466
surface expression score [2]: -1.08

A124L
cAMP reporter score ([1]; pH 5.5): -0.789
cAMP reporter score ([1]; pH 6): -1.15
cAMP reporter score ([1]; pH 6, modulator: ogerin): -2.29
surface expression score [2]: -0.424

A124M
cAMP reporter score ([1]; pH 5.5): -0.091
cAMP reporter score ([1]; pH 6): -0.221
cAMP reporter score ([1]; pH 6, modulator: ogerin): 0.229
cAMP reporter score ([1]; pH 6.5, modulator: ogerin): -0.652
surface expression score [2]: -1.52

A124N
cAMP reporter score ([1]; pH 5.5): -0.482
cAMP reporter score ([1]; pH 6): -0.684
cAMP reporter score ([1]; pH 6, modulator: ogerin): -0.801
cAMP reporter score ([1]; pH 6.5, modulator: ogerin): -1.7
surface expression score [2]: -1.5

A124P
cAMP reporter score ([1]; pH 5.5): -0.906
cAMP reporter score ([1]; pH 6): -0.117
cAMP reporter score ([1]; pH 6, modulator: ogerin): -1.35
cAMP reporter score ([1]; pH 6.5, modulator: ogerin): -0.7
surface expression score [2]: -1.2

A124Q
cAMP reporter score ([1]; pH 5.5): -0.403
cAMP reporter score ([1]; pH 6, modulator: ogerin): -3.19
cAMP reporter score ([1]; pH 6.5, modulator: ogerin): -3.64
surface expression score [2]: -1.44

A124R
cAMP reporter score ([1]; pH 5.5): -0.06
cAMP reporter score ([1]; pH 6): -0.687
cAMP reporter score ([1]; pH 6, modulator: ogerin): -0.577
cAMP reporter score ([1]; pH 6.5, modulator: ogerin): -0.077
surface expression score [2]: -0.996

A124S
cAMP reporter score ([1]; pH 5.5): 0.495
cAMP reporter score ([1]; pH 6): -0.684
cAMP reporter score ([1]; pH 6, modulator: ogerin): -0.152
cAMP reporter score ([1]; pH 6.5, modulator: ogerin): -0.447

A124T
cAMP reporter score ([1]; pH 5.5): -0.657
cAMP reporter score ([1]; pH 6): -0.258
cAMP reporter score ([1]; pH 6, modulator: ogerin): -0.68
surface expression score [2]: -2.3

A124V
cAMP reporter score ([1]; pH 5.5): 0.811
cAMP reporter score ([1]; pH 6): 2.75
cAMP reporter score ([1]; pH 6, modulator: ogerin): 1.1
cAMP reporter score ([1]; pH 6.5, modulator: ogerin): 2.12
surface expression score [2]: 1.14

A124W
cAMP reporter score ([1]; pH 5.5): -1.55
cAMP reporter score ([1]; pH 6): 0.763
cAMP reporter score ([1]; pH 6, modulator: ogerin): -2.27
surface expression score [2]: -3.42

A124Y
cAMP reporter score ([1]; pH 5.5): -0.564
cAMP reporter score ([1]; pH 6): -0.359
cAMP reporter score ([1]; pH 6, modulator: ogerin): -0.759
cAMP reporter score ([1]; pH 6.5, modulator: ogerin): -0.875
surface expression score [2]: -1.7

A124_P126del
cAMP reporter score ([1]; pH 5.5): -1.79
cAMP reporter score ([1]; pH 6): -2.08
cAMP reporter score ([1]; pH 6, modulator: ogerin): -1.92
cAMP reporter score ([1]; pH 6.5, modulator: ogerin): -0.117
surface expression score [2]: -2.13

A124del
cAMP reporter score ([1]; pH 5.5): -0.764
cAMP reporter score ([1]; pH 6): -0.43
cAMP reporter score ([1]; pH 6, modulator: ogerin): -1.14
cAMP reporter score ([1]; pH 6.5, modulator: ogerin): -1.26

H125_P126del
cAMP reporter score ([1]; pH 5.5): -1.14
cAMP reporter score ([1]; pH 6): -2.74
cAMP reporter score ([1]; pH 6, modulator: ogerin): -0.898
cAMP reporter score ([1]; pH 6.5, modulator: ogerin): -2.83
surface expression score [2]: -3.38

H125_P126insG
cAMP reporter score ([1]; pH 5.5): -0.408
cAMP reporter score ([1]; pH 6): -2.18

H125_P126insGS
cAMP reporter score ([1]; pH 5.5): -0.859
cAMP reporter score ([1]; pH 6): -0.952
cAMP reporter score ([1]; pH 6, modulator: ogerin): -1.23
cAMP reporter score ([1]; pH 6.5, modulator: ogerin): -0.678
surface expression score [2]: -3.19

H125_P126insGSG
cAMP reporter score ([1]; pH 5.5): -1.68
cAMP reporter score ([1]; pH 6): -0.559

P126_F127del
cAMP reporter score ([1]; pH 5.5): -1.09
cAMP reporter score ([1]; pH 6): -1.53
cAMP reporter score ([1]; pH 6, modulator: ogerin): -1.56
cAMP reporter score ([1]; pH 6.5, modulator: ogerin): -0.417
surface expression score [2]: -2.25

P126_F127insGS
cAMP reporter score ([1]; pH 5.5): -0.965
cAMP reporter score ([1]; pH 6): -1.67
cAMP reporter score ([1]; pH 6.5, modulator: ogerin): -0.319
surface expression score [2]: -2.86

P126_R128del
cAMP reporter score ([1]; pH 5.5): -1.21
cAMP reporter score ([1]; pH 6): -0.528
cAMP reporter score ([1]; pH 6, modulator: ogerin): -2.7
cAMP reporter score ([1]; pH 6.5, modulator: ogerin): -1.16
surface expression score [2]: -2.94

P126del
cAMP reporter score ([1]; pH 5.5): -1.38
cAMP reporter score ([1]; pH 6): -1.18
cAMP reporter score ([1]; pH 6, modulator: ogerin): -0.793
cAMP reporter score ([1]; pH 6.5, modulator: ogerin): -1.54
surface expression score [2]: -1.39

F127_R128del
cAMP reporter score ([1]; pH 5.5): -1.28
cAMP reporter score ([1]; pH 6): -1.06
cAMP reporter score ([1]; pH 6, modulator: ogerin): -1.78
cAMP reporter score ([1]; pH 6.5, modulator: ogerin): -1.42
surface expression score [2]: -2.22

R128C
cAMP reporter score ([1]; pH 5.5): -0.446
cAMP reporter score ([1]; pH 6): -1.8
cAMP reporter score ([1]; pH 6, modulator: ogerin): -1.47
cAMP reporter score ([1]; pH 6.5, modulator: ogerin): -0.619
surface expression score [2]: -2.29
